Reference: publication PMC4336329 (PLoS ONE, 2015)
The whole screen tested about 310,000 compounds, of which about 14,000 (4.5%) showed an effect of 50% or more. The effect is printed as a negative number. The list shows a part of the results. Where a SMILES comes first, the peptide text is derived from it. The star is where a group is joined. Cbz = O=C(OCc1ccccc1)*

The molecules below were run against human ether-à-go-go-related gene (hERG) potassium channel (human, UniProt Q12809) (assay: primary screen, population patch clamp on CHO cells stably expressing hERG).
Sequence of human ether-à-go-go-related gene (hERG) potassium channel (Q12809 whole entry, looked up): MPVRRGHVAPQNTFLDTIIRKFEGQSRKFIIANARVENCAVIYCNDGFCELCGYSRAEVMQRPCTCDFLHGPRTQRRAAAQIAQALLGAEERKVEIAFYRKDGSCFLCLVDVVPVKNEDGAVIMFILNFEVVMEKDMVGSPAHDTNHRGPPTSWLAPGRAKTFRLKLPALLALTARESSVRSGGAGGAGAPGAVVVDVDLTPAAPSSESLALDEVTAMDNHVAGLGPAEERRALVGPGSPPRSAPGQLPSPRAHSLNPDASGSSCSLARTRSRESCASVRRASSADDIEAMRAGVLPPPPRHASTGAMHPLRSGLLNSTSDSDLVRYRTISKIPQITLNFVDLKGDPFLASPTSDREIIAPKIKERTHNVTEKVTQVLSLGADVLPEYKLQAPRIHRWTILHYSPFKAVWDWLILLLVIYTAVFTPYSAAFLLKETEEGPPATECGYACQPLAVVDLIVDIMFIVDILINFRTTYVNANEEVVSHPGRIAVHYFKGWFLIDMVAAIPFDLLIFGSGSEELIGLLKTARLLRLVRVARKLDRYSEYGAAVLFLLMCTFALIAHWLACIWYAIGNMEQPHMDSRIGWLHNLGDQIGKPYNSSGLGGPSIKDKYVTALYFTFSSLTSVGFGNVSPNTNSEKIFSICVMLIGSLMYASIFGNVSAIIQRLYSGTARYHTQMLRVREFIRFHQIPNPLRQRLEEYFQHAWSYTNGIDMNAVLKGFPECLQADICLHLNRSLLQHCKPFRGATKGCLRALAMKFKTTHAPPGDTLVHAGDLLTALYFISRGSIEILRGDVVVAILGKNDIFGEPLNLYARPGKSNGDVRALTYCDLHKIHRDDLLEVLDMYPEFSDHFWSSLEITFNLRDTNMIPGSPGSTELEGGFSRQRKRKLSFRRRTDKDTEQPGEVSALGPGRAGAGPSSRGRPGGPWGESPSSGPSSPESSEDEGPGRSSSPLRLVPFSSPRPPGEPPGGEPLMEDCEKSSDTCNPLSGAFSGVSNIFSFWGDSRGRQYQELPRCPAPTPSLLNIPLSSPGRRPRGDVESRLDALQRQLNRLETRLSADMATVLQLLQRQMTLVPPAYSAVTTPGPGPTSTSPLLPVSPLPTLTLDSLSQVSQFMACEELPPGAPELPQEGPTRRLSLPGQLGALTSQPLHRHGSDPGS
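Note: peak tail current of the secondary pulse compared with the same well before compound.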

SMILES | hERG current change (%, negative = inhibition) at 10uM [%]
Cc1ccc(-c2c[n+](CC(=O)Nc3nc(-c4ccc(F)cc4)cs3)c3n2CCC3)cc1.[Cl-] | -74.2
Cn1c(=O)n(C/C=C/c2ccccc2)c(=O)c2c1nc1n2CCCN1c1ccc(F)cc1 | 9.54
COc1ccccc1C(=O)NCC(=O)OCC(=O)Nc1nnc(-c2ccccc2)o1 | 9.88
CCN(CC(=O)Nc1ccc(NC(C)=O)cc1)C(=O)C1(c2ccccc2)CC1 | 1.62
COC(=O)C1=C(c2ccc(F)cc2F)C[C@@H]2CC[C@H]1N2C(=O)NC(C)C | 9.97
Cc1ccc(S(=O)(=O)N2CCC(C(=O)N/N=C/c3ccncc3)CC2)cc1 | -36.2
COc1cccc(C2CC(C(F)(F)F)n3ncc(C(=O)NCC4CCCO4)c3N2)c1 (stereo not shown) | -11.8
O=C(CN1C(=O)C2C3C=CC(C3)C2C1=O)Nc1ccc(S(=O)(=O)Nc2nccs2)cc1 (stereo not shown) | 11.3
Cc1ccc2ncnc(Nc3cccc(C(=O)O)c3)c2c1.Cl | 8.73
COc1cccc(OC)c1C(=O)Nc1sc2c(c1C(N)=O)CCCC2 | -1.2
CCOC(=O)C1=NN(c2ccc([N+](=O)[O-])cc2)CC1C(=O)OC (stereo not shown) | -23.6
CCOC(=O)c1c(NC(=O)CN2CCCCC2)sc2c1CCC(C=O)=C2Cl | 18.5
CCOC(=O)CSC1=N/C(=C\c2cc(OC)c(OC)c(OC)c2)C(=O)N1C | -7.36
Cc1ccc(C(=O)Nc2ccc(N3CCN(C(=O)c4ccco4)CC3)cc2)c(Cl)c1 | -16
O=C(Cn1nc(-c2ccccc2)ccc1=O)NCC1CCCO1 (stereo not shown) | -9.54
COC(=O)CCC(NC(=O)OCc1ccccc1)C(=O)NC(CC(C)C)C(=O)OC (stereo not shown) (Cbz-Glu(OMe)-Leu-OMe; configuration not given here) | -3.04
Cc1ccc(C(=O)OCC(=O)Nc2ccccc2)cc1NC(=O)c1ccco1 | -4.37
Cc1nc2ccccc2cc1C(=O)N/N=C/c1cccs1 | -6.93
Cc1ccc(NC(=O)CN2C(=O)CCSc3ccc(S(=O)(=O)N4CCCC4)cc32)cc1C | 13.3
CC(NC(=O)c1ccccc1)C(=O)OCC(=O)c1ccc(Br)cc1 (stereo not shown) | -4.63
C=C1Cn2c(nnc2-c2ccc(Cl)cc2)S1 | -27.4
COc1ccc2c3c1OC1CC(O)C=CC31CCN(C)C2 (stereo not shown) | 5.9
Cc1cc(C)c2c(=O)[nH]n(C(C)C)c2n1 | 7.27
O=C(NCc1ccc2c(c1)OCO2)C12CN(Cc3ccccc3)CC1C(c1cccc([N+](=O)[O-])c1)=NO2 (stereo not shown) | 12.2
O=c1c(S(=O)(=O)c2ccc(Cl)cc2)cn(Cc2cccc(F)c2)c2ccc(F)cc12 | -43.7
CCn1cc(CN2CCCC(C(=O)Nc3ccc(-c4cscn4)cc3)C2)cn1 (stereo not shown) | 0.185
O=S(=O)(c1ccc(F)cc1)N1CCN(C(=S)NCCc2ccccc2)CC1 | 1.47
O=C(N/N=C\c1ccc([N+](=O)[O-])o1)c1cncc(Br)c1 | -36.7

SMILES | hERG current change (%, negative = inhibition) at 10uM [%]
C=C(C)c1cccc(C(C)(C)NC(=O)N2CCN(c3ccccc3OC)CC2)c1 | 4.28
CCOC(=O)c1nc(C)nc(Sc2n[nH]c(-c3cc(Cl)cc(Cl)c3)n2)c1C | 4.12
O=C1CCc2cc(NS(=O)(=O)c3ccccc3)cc3c2N1CCC3 | 14.1
Cc1ccc(CN(C)C(=O)C2CCC(=O)N(C3CCCCCC3)C2)cc1 (stereo not shown) | 7.71
CC1=N/C(=C/c2cccnc2)C(=O)O1 | 14.8
COc1ccc(Cn2cccc(NC(=O)Nc3ccc(F)cc3)c2=O)cc1 | 28.6
O=C(NCC(O)COc1ccc([N+](=O)[O-])cc1)c1ccccc1 (stereo not shown) | -40.4
COc1cc2c(cc1OC)C(c1cccs1)CC(=O)N2 (stereo not shown) | 8.51
O=C(Nc1ccccc1)C1CCCN1C(=O)NCc1ccccc1 (stereo not shown) | 10
CCCCC(=O)NC(=S)NNS(=O)(=O)c1ccccc1 | -13.3
COc1ccc(S(=O)(=O)N/N=C(/C)c2ccncc2)cc1OC | -1.27
C/C(=N\NC(=O)c1cc2c(s1)CCC(C)C2)c1ccncc1 (stereo not shown) | 2.24
CCCCNC(=O)Nc1nnc(SCC(=O)OCC)s1 | -91.2
Cn1cncc1COC(=O)c1ccc(Cl)cc1 | 5.21
O=C1C=Cc2ccccc2C1=O | 12.8
CCCCC(CCC(=O)Nc1cccc([N+](=O)[O-])c1)C(=O)O (stereo not shown) | 10.3
O=C(c1ccccc1[N+](=O)[O-])N1CCN(Cc2ccc3c(c2)OCO3)CC1 | -13.4
COc1cc(NC(=O)Nc2ccc(Cl)c(Cl)c2)c(C(=O)O)cc1OC | -5.57
Nc1ccc2nc(-c3ccc(-c4nc5ccc(N)cc5[nH]4)cc3)[nH]c2c1 | 7.64
O=C(Oc1coc(CSc2nnc(NC(=O)C3CC3)s2)cc1=O)c1ccccc1 | 4.94
O=C(COc1ccc2c3c(c(=O)oc2c1)CCC3)N1CCCC1 | 12.4
CCCCNC(=S)N1CCn2cccc2C1c1cccnc1 (stereo not shown) | -25.9
COCCn1c(=O)[nH]c2cc(C(=O)N3CCN(c4ccccc4F)CC3)ccc2c1=O | 3.07
Cl.Clc1cccc(-c2ccc(CNCCCN3CCOCC3)o2)c1 | -58.3
Cc1oc(-c2ccc(-c3ccccc3)cc2)nc1CN1CCN(CC(=O)N(C)C)CC1 | -53
Cc1cccc(C)c1OCc1nnc(SCC(=O)NCCc2ccccc2)o1 | -16.5
NNC(=O)Cn1nnc(-c2ccc(C(F)(F)F)cc2)n1 | 14.6
